Reference: PubChem BioAssay AID485344 (National Center for Advancing Translational Sciences (NCATS), 2010)
In all, about 340,000 compounds went through this assay and about 6,900 (2%) were called active. Cut-off read from the data, not from the text of the source: active = inhibition above about 30%; inactive = below that, where a call was filed. The list shows a part of the results, in another mix than the full data. Where no call is shown, the source filed none.

molecular target: D(2) dopamine receptor (Homo sapiens) (UniProt P14416); assay: HTS Assay for Allosteric Antagonists of the Human D2 Dopamine Receptor: Primary Screen for Antagonists; conditions: HEK293 TREx D2 cells, calcium flux, dopamine EC80; at 10 µM; stronger effect = higher value; note: 0% is about no effect
Method in brief: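 Tetracycline-induced HEK293 TREx cells expressing D2 receptor forced-coupled to calcium signalling, loaded with no-wash calcium dye. Compounds added and calcium flux read 180 s, then dopamine added at EC80 and read a further 180 s.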

Chain of UniProt P14416 (P14416 whole entry, looked up): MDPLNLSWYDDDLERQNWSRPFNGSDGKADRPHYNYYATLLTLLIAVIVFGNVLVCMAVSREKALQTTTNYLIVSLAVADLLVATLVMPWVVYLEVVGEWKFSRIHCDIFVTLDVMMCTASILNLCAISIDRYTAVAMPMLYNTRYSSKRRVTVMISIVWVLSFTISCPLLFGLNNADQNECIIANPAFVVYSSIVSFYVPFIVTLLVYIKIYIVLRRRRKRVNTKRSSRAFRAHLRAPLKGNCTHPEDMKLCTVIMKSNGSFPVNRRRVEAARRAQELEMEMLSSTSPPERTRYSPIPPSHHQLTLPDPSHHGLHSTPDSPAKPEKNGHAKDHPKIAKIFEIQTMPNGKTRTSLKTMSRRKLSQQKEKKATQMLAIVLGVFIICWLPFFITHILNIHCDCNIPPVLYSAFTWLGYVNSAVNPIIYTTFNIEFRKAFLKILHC

| Structure (SMILES) | inhibition |
| --- | --- |
| Fc1ccc(C2=CC(c3ccc(F)cc3)n3c(nc4ccccc43)N2)cc1 (stereo unspecified) | 0.305% |
| Cc1cc(-n2c(C)nc3ccccc3c2=O)ccc1NC(=O)C(F)(F)F | -27.4% |
| CC(CNC(=O)c1ccc2nc(Cc3ccccc3)oc2c1)c1ccccc1 (stereo unspecified) | 12.4% |
| COc1ccc(S(=O)(=O)N(C)C)cc1NC(=O)c1ccc2c(c1)NC(=O)C(C)S2 (stereo unspecified) | active: 76.6% |
| Cc1cccc(CCN2C(Nc3ccccc3)=NC[C@@H]2CC(C)C)c1 | active: 69.9% |
| CCn1cc(C(=O)NCc2ccc(Cl)cc2)c(=O)c2cc(S(=O)(=O)N(C)C3CCCCC3)ccc21 | 13.9% |
| CC(C)(C)c1ccc(OCc2nnc(-c3ccccc3)o2)cc1 | 6.27% |
| COc1ccccc1-c1ccc(SCC(=O)NCCc2ccccc2)nn1 | active: 48.4% |
| O=C(CSc1nnc(-c2ccc(F)cc2)o1)N1CCCc2ccccc21 | 7.34% |
| Cc1ccc(CSc2nnc3[nH]c(=O)cc(-c4ccccc4)n23)cc1 | 1.85% |
| O=C(CCC1N=C2c3ccccc3N=C(SCc3ccc(Cl)cc3)N2C1=O)N1CCN(c2ccccc2)CC1 (stereo unspecified) | 9.92% |
| COc1ccc(C2C=C(c3ccc(Cl)c(Cl)c3)Nc3ncnn32)cc1 (stereo unspecified) | -18.5% |
| COc1ccc(N2CCN(CCCNC(=O)Nc3ccccc3)CC2)cc1 | -6.14% |
| COC(=O)c1sccc1S(=O)(=O)N(CC(=O)NCc1ccc(C)cc1)c1ccc(C)cc1 | 12.3% |
| Fc1ccc(-c2nc(Nc3cccc(C(F)(F)F)c3)nc3c2COc2ccccc2-3)cc1 | -11.7% |
| COc1ccc(-n2c(SCC(=O)NCc3ccc(C)cc3)nc3n[nH]c(C)c3c2=N)cc1 | -1.97% |
| COc1ccc(-c2nc3c(c(SCC(=O)N4CCCCC4)n2)Cc2cc(Cl)ccc2O3)cc1 | -0.462% |
| CN(C)c1ccc(CNC(=O)Cn2c(=O)oc3cc(S(=O)(=O)N4CCCCCC4)ccc32)cc1 | -8.07% |
| Cc1ccc(NC(=O)Cc2coc3ccc(C(C)C)cc23)cc1Cl | 1.43% |
| CCCCCC(C)NC(=O)c1ccoc1C (stereo unspecified) | active: 40.3% |
| COc1ccc(-n2c(=O)[nH]c3cc(C(=O)NCCc4ccccc4)ccc3c2=O)cc1OC | 22.5% |

| Structure (SMILES) | inhibition |
| --- | --- |
| CCCS(=O)(=O)c1nc(S(=O)(=O)c2ccc(C)cc2)c(NC)s1 | -1.38% |
| Cc1ccc(-n2ncc(C(=O)N3CCCCC3)c2C2CCN(C(=O)OC(C)(C)C)CC2)c(C)c1 | 2.18% |
| O=C(COc1ccccc1)Nc1ccc2nc(SCC(=O)N3CCOCC3)sc2c1 | -10% |
| CCOC(=O)c1c(NC(=O)c2ccc(OC)cc2)sc2c1CCCCC2 | -12.3% |
| O=C(NCc1ccccc1)Nc1cccn(Cc2ccccc2Cl)c1=O | active: 33.2% |
| COc1ccc(NC(=O)c2oc3ccccc3c2NC(=O)COc2ccc(C(C)C)cc2)c(OC)c1 | 3.29% |
| COc1cc(OC)cc(-c2c(-c3cccs3)c3cc(-c4ccc(SC)cc4)ccc3n2C)c1 | active: 57.7% |
| O=C(Nc1ccccc1Cl)c1sc2cccc(Cl)c2c1Cl | -4.26% |
| Cc1ccc(N(CC(=O)Nc2ccc(Cl)cc2)S(=O)(=O)c2cccc3nonc23)cc1 | -8% |
| CCOc1cc(CNC(=O)CN2CCSc3ccccc32)cc(OCC)c1OCC | 23% |
| COc1cccc(NC(=O)Cn2c(=O)n(Cc3ccccc3)c(=O)c3ccccc32)c1 | 1.07% |
| CN1C(C(=O)Nc2ccc(OC(F)(F)F)cc2)=CC(c2cccs2)=NS1(=O)=O | -7.57% |
| CCSc1nc2n(n1)C(c1ccc(C(=O)O)cc1)C(C(=O)Nc1ccccc1C)=C(C)N2 (stereo unspecified) | 3.54% |
| CCCSc1nc2c([nH]c3ccccc32)c(=O)n1C | 16.9% |
| O=C(NCc1cccnc1)c1nn(-c2ccc(F)cc2)nc1CO | -21.4% |
| CCCCNC(=O)C1CCN(S(=O)(=O)c2c(C)noc2/C=C\c2ccc(OC)cc2)CC1 | active: 39.6% |
| Cc1ccc(Cl)cc1N1CCN(S(=O)(=O)c2ccc3c(c2)CCN3C(=O)C2CCC2)CC1 | 12.6% |
| COc1ccccc1CNC(=O)CSC1=Nc2ccccc2N=C(c2ccc(F)cc2)C1 | -14.9% |
| CCc1ccc(NS(=O)(=O)c2ccc3[nH]cc(C(=O)NCCCOC(C)C)c(=O)c3c2)cc1 | -7.06% |
| CC(C)c1nc2ccc(C(=O)Nc3ccccc3F)cc2o1 | 5.61% |
| Cc1ccc(C)c(N2CCN(CCCNC(=O)Cn3cccc3C(=O)c3ccccc3)CC2)c1 | active: 41% |

| Structure (SMILES) | inhibition |
| --- | --- |
| Cc1ccc(NC(=O)c2cnn3c2NC(c2ccccc2)=CC3c2ccccc2)cc1 (stereo unspecified) | 10.8% |
| CCC(Sc1nnc(C)n2c1cc1occc12)C(=O)Nc1ccccc1OC (stereo unspecified) | 3.3% |
| CCN(Cc1ccccc1)C(=O)c1cnn(-c2ccc(F)cc2)c1-n1cccc1 | -13.4% |
| CC(=O)c1ccc(NC(=O)Cn2nc(N3CCN(c4ccccc4)CC3)ccc2=O)cc1 | -11.4% |
| COc1ccccc1OC(C)C(=O)Nc1cccc(-c2nc3ccccc3o2)c1 (stereo unspecified) | 13% |
| Nc1nc(CN2CCN(c3ccccn3)CC2)nc(Nc2ccc(Cl)cc2)n1 | active: 73.8% |
| CC(=O)c1sc(N2C(=O)c3oc4ccccc4c(=O)c3C2c2ccc(C)cc2)nc1C (stereo unspecified) | 8.27% |
| O=C(Cn1c(=O)nc(-c2ccccc2)c2cc(Cl)ccc21)Nc1ccc(F)c(Cl)c1 | -2.45% |
| COc1cccc(CNC(=O)c2ccc(-n3c(C)cc4c3CCC(C)C4)cc2)c1 (stereo unspecified) | -16.3% |
| CCOc1cc(C#N)c(NC(=O)Cn2nnc(-c3ccc(C)cc3)n2)cc1OCC | 0.917% |
| CC(C)NC(=O)c1ccc(NC(=O)N2CCCCc3ccccc32)cc1 | 17.7% |
| CCCn1c2ccccc2c2cnn(CC(=O)N3CCN(c4ccccc4)CC3)c(=O)c21 | 17.3% |
| Cc1cccc(CSc2ncc(Cl)c(C(=O)Nc3nc4ccc(F)cc4s3)n2)c1 | -18.1% |
| CC(=O)N1c2ccc(S(=O)(=O)N(C)CC(=O)N(C)Cc3ccccc3)cc2CC1C (stereo unspecified) | active: 36.2% |
| Cc1ccc2nc3c(cc(C#N)c(=O)n3-c3nnc(SCc4ccccc4)s3)c(=O)n2c1 | -5.89% |
| COc1cc(NC(=O)Cn2cc(C(=O)c3ccc(F)cc3)c(=O)c3ccc(C)nc32)cc(OC)c1 | 7.41% |
| CCOc1ccc(NC(=O)c2ncoc2-c2ccco2)cc1 | 7.5% |
| CCOc1ccc(-c2nc3c(c(SCC(=O)N4CCCCC4)n2)Cc2cccc(OC)c2O3)cc1 | 9.61% |
| COc1ccccc1NS(=O)(=O)c1ccc(NN=C2CCCC2)c([N+](=O)[O-])c1 | active: 34.4% |
